Results published in PubChem BioAssay (NCI).
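48-hour exposure; five concentrations; linearly interpolated endpoints. GI50 is the concentration that inhibits growth by half. The concentration for full growth arrest is given as TGI.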

Test system: NCI-H322M lung
Assay: NCI tumour cell line growth inhibition, 48 h

SMILES: O=c1ccc(Cn2c(C(F)(F)F)cc3c(Cl)ncnc32)c[nH]1
- GI50: 14.1 µM
- TGI: 39.7 µM
